Assay results from PubChem BioAssay AID1476 (National Center for Advancing Translational Sciences (NCATS), 2009).
Among all 200,000 compounds or so, about 4,500 (2.2%) were called active. This list was built around the results that the source calls inconclusive (neither active nor inactive); the mix of calls is not that of the screen. The call rests on the fitted dose curve; in most records, active means well fitted inhibition curve with a large enough effect; inconclusive means small, poorly fitted or top-dose-only effect, or effect the other way; inactive means flat fitted curve, though single readings scatter. A potency beside an inconclusive call is a rough fit, not a confirmed value.

target: Cruzipain (Trypanosoma cruzi) (UniProt P25779); assay: qHTS Assay for Promiscuous and Specific Inhibitors of Cruzain (without detergent); details: purified cruzain, Z-FR-AMC fluorescence, no detergent; further: nearly all actives have a fitted effect of over 40% in size;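 on max response, negative = inhibition: plate controls were enzyme without inhibitor for no effect and buffer without enzyme for full effect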
Chain of UniProt P25779 (P25779 whole entry, looked up): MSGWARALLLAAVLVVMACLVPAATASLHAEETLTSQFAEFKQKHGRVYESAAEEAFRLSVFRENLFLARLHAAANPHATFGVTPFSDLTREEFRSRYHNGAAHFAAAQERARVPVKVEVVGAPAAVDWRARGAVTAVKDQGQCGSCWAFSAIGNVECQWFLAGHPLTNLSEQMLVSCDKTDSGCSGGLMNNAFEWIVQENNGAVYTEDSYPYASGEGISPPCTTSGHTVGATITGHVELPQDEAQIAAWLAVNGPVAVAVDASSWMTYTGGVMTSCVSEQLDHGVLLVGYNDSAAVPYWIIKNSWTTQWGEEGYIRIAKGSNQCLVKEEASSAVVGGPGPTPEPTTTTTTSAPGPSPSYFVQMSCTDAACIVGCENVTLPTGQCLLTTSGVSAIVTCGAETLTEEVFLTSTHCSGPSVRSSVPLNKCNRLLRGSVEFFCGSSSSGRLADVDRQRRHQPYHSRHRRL
How it was run: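 Detergent-free condition (0.00005% Triton X-100) in acetate buffer pH 5.5 with DTT. 1.5 nM enzyme and compound were pre-mixed 15 min, then 2 uM Z-FR-AMC substrate added; reaction progress from fluorescence change between first and third reads (60 s).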
Potency means the concentration at half of the fitted maximal effect; tags describe the fitted curve by direction and shape.

| Structure (SMILES) | max response, negative = inhibition | Potency |
| --- | --- | --- |
| CCc1c(C)sc(NC(=O)CCc2ccc(OC)cc2)c1C(N)=O | inactive: 0.578% | – |
| Cc1cc(C(=O)CSc2nc3ccccc3c(=O)n2C)c(C)n1Cc1ccc2c(c1)OCO2 | – | inconclusive: 7.94 µM [inhibitor, partial curve] |
| O=S(=O)(c1ccc(Cl)cc1)c1nc(-c2cccs2)oc1SCc1ccccc1F | – | inconclusive: 39.8 µM [inhibitor, single point] |
| CC(C)C(C)(C#N)NC(=O)CSc1nc2scc(-c3ccc(F)cc3)c2c(=O)n1Cc1ccccc1 (configuration not stated) | – | inconclusive: 31.6 µM [inhibitor, single point] |
| CCNS(=O)(=O)c1ccc2c(c1)NCC2 | inactive: 8.19% | – |
| O=C(NCc1ccc2c(c1)OCO2)c1ccc(CS(=O)(=O)c2cccc(C(F)(F)F)c2)o1 | – | inconclusive: 39.8 µM [activator, single point] |
| O=C(/C(=C(/[O-])c1ccccc1)[n+]1ccccc1)c1ccc([N+](=O)[O-])cc1 | inactive: -19.4% | – |
| CCOC(=O)C1=C(CP(=O)(c2ccccc2)c2ccccc2)NC(=O)NC1c1ccc(OC)cc1 (configuration not stated) | inactive: -0.826% | – |
| COc1ccc(-n2nc(C(=O)Nc3ccc(C(C)=O)cc3)nc2-c2ccccc2)cc1 | inactive: -12.3% | – |
| COC(=O)c1ccccc1NC(=O)Cn1c(=O)n(Cc2ccccc2)c(=O)c2c(C)c(C)sc21 | – | inconclusive: 39.8 µM [inhibitor, single point] |
| Cc1[nH]c2ccc(-c3nnc(SCC(=O)c4ccccc4F)o3)cc2c1C | – | inconclusive: 7.94 µM [activator, single point] |
| Cc1cc(C(=O)CSc2nnc(-c3ccccc3)n2-c2ccccc2)c(C)n1-c1ncn[nH]1 | – | inconclusive: 31.6 µM [activator, single point] |
| CCc1nnc(NC(=O)CSc2nc3cccnc3n2C2CCCCC2)s1 | – | inconclusive: 31.6 µM [activator, single point] |
| Cc1[nH]c2ccccc2c1C1(O)C(=O)N(Cc2ccccc2)c2ccc(Cl)cc21 (configuration not stated) | – | inconclusive: 39.8 µM [activator, single point] |
| Cc1ccc(OCC(=O)Nc2c(C(=O)c3ccc(Cl)cc3)oc3ccccc23)cc1C | inactive: 1.49% | – |
| CS(=O)(=O)Nc1ccc(C2=NN(S(C)(=O)=O)C(c3ccc4c(c3)OCO4)C2)cc1 (configuration not stated) | – | inconclusive: 39.8 µM [activator, single point] |
| NC(=O)CSc1nnc(CNc2cccc(Cl)c2)n1CCc1ccccc1 | – | inconclusive: 31.6 µM [activator, single point] |
| CCOC(=O)CSc1nc(N(C)C)nc(N(C)C#N)n1 | – | active: 20 µM |
| Cc1ccc(-n2nc3c(c2NC(=O)c2ccc4c(c2)OCO4)CSC3)cc1 | – | active: 15.8 µM |
| COc1ccc(-c2nnc(NC(=O)c3ccc(S(=O)(=O)N4CCCc5ccccc54)cc3)o2)cc1 | inactive: -23.3% | – |
| CCOC(=O)c1c(C)[nH]c(C)c1C(=O)CSc1nnc(-c2ccncc2)n1Cc1ccccc1 | – | inconclusive: 39.8 µM [activator, single point] |

| Structure (SMILES) | max response, negative = inhibition | Potency |
| --- | --- | --- |
| CSc1ccc(-c2nc3cccc(C)n3c2Nc2ccc3c(c2)OCO3)cc1 | – | inconclusive: 39.8 µM [inhibitor, single point] |
| CC(C)c1ccc(CNC(=O)c2ccc(N3CCCC3)c(NC(=O)NCc3ccccc3)c2)cc1 | – | inconclusive: 39.8 µM [inhibitor, single point] |
| COc1ccccc1N1CCN(S(=O)(=O)c2ccc(F)c(C(=O)Nc3ccc(Cl)cc3C(F)(F)F)c2)CC1 | – | inconclusive: 39.8 µM [inhibitor, single point] |
| Cc1ccc(NC(=O)Cn2nnc(C(=O)NCc3cccs3)c2N)cc1 | – | inconclusive: 31.6 µM [inhibitor, single point] |
| O=C(NNC(=O)c1sc2cccc(Cl)c2c1Cl)Nc1ccccc1 | – | active: 10 µM |
| N#C/C(=C/c1ccc(N2CCCCCC2)o1)c1cccc(F)c1 | – | inconclusive: 39.8 µM [activator, single point] |
| CCc1ccccc1-n1cnc2cc(C(=O)NC3CCCCCC3)ccc21 | inactive: -1.49% | – |
| NC(=O)[C@@H]1CCNc2c(I)cc([N+](=O)[O-])cc2C(=O)N[C@@H](CO)C(=O)N[C@@H](Cc2ccc(O)cc2)C(=O)N1 | inactive: 12.7% | – |
| CC(=O)c1ccc(NC(=O)Nc2sc3nc4n(c(=O)c3c2C)CCC(C)CC4)cc1 (configuration not stated) | – | inconclusive: 20 µM [activator, partial curve] |
| COc1ccc(Cl)cc1Nc1ncnc2sc(C)c(S(=O)(=O)N3CCC(C)CC3)c12 | – | inconclusive: 39.8 µM [inhibitor, single point] |
| Cc1ccc(S(=O)(=O)c2nc(-c3cccs3)oc2SCc2ccc(F)cc2)cc1 | inactive: -14.6% | – |
| CC1=C(C#N)C(NC(=O)c2ccccc2)(C(F)(F)F)C(=O)N1 (configuration not stated) | inactive: 1.02% | – |
| CCOc1ccc(N=c2oc3cc(O)ccc3cc2C(=O)NCC2CCCO2)cc1 (configuration not stated) | – | active: 6.31 µM |
| CC(C)(C)NC(=O)NC(=O)CN1CCN(c2ncc(C(F)(F)F)cc2Cl)CC1 | – | inconclusive: 31.6 µM [activator, single point] |
| Cc1ccc(NC(=O)c2ccc3c(O)c(S(=O)(=O)c4ccc(Cl)cc4)c(=O)[nH]c3c2)cc1 | – | inconclusive: 39.8 µM [activator, single point] |
| CCCCNC(=O)CCc1c(C)nc2nc(-c3cc(OC)cc(OC)c3)nn2c1C | – | inconclusive: 31.6 µM [activator, single point] |
| Cc1ccc(NC(=O)C(OC(=O)c2ccc(C=O)cc2)c2ccccc2)cc1Cl (configuration not stated) | – | active: 25.1 µM |
| NCC1O[C@@H](OC2C(N)C[C@H](N)[C@@H](O[C@H]3OC(CO)C(O)C(N)C3O)C2O)C(O)C(O)C1O (some centres not stated) | inactive: 2.42% | – |
| COc1ccc(CNC(=O)C(=O)NCC(c2ccco2)S(=O)(=O)c2cccs2)cc1 (configuration not stated) | inactive: 13.4% | – |
| Clc1ccc(C2[C@H]3CN(Cc4ccc(-c5ccccc5)cc4)[C@H](c4ccccc4)C34CC2(c2ccccc2)C4)cn1 (some centres not stated) | – | inconclusive: 39.8 µM [inhibitor, single point] |
| Cc1ccccc1Oc1nc2c(C)cccn2c(=O)c1/C=C(\C#N)C(=O)Nc1c(C)n(C)n(-c2ccccc2)c1=O | – | inconclusive: 31.6 µM [activator, single point] |

| Structure (SMILES) | max response, negative = inhibition | Potency |
| --- | --- | --- |
| Cc1ccc(-c2cc(-c3ccccc3)c3c(N)c(S(C)(=O)=O)sc3n2)cc1 | – | inconclusive: 20 µM [inhibitor, single point] |
| Cc1[nH]n(-c2ccccc2)c(=S)c1C=NCCCN=Cc1c(C)[nH]n(-c2ccccc2)c1=S | – | inconclusive: 31.6 µM [activator, partial curve] |
| c1ccc(-c2ccc3c(c2)c2c4n3CCN=C4CCC2)cc1 | – | inconclusive: 39.8 µM [inhibitor, single point] |
| Cc1ccc(C(=O)Nc2ccc3c4c(cccc24)CC3)cc1[N+](=O)[O-] | – | inconclusive: 39.8 µM [inhibitor, single point] |
| O=C(Cc1ccc(NC(=O)N2CCCCc3ccccc32)cc1)NCc1cccc(Br)c1 | inactive: 5.8% | – |
| CCOc1cc(/C=N\NC(=O)c2ccc(NC(=O)CC)cc2)ccc1OC(=O)c1ccccc1 | – | inconclusive: 39.8 µM [inhibitor, single point] |
| CCC(=O)N1CCc2cc(CNC(=O)Nc3cc(OC)c(OC)c(OC)c3)ccc21 | – | inconclusive: 0.0501 µM [activator, full curve, poor fit] |
| O=C(Nc1ccc(Cl)cc1)[C@@H]1[C@@H]2C(=O)N(c3ccc(Cl)cc3)C(=O)[C@@H]2[C@H]2C=CC=NN21 | – | active: 20 µM |
| Cc1ccccc1Cn1c(=O)n(Cc2ccco2)c(=O)c2sc3ccccc3c21 | – | inconclusive: 15.8 µM [inhibitor, partial curve] |
| COc1ccccc1CNC(=O)Cc1c(C)c2cc3c(C)coc3c(C)c2oc1=O | inactive: -0.264% | – |
| COC(=O)c1ccccc1NC(=O)CCCn1c(C)c2cnn(-c3ccccc3)c(=O)c2c1C | inactive: -3.97% | – |
| CC(C)(C)OC(=O)N1CCC[C@H]1c1nnc(SCc2ccccc2Cl)o1 | – | inconclusive: 31.6 µM [activator, partial curve] |
| CCn1cc(Br)c(C(=O)NC(=S)Nc2ccc(C(=O)OC)cc2)n1 | – | inconclusive: 39.8 µM [inhibitor, single point] |
| COc1ccc(OC)c(C2=Nn3c(nnc3-c3cccc(OC(C)C)c3)SC2)c1 | – | inconclusive: 25.1 µM [activator, single point] |
| CCn1c(C(=O)Nc2ccccc2C(=O)OC)cc2sc(Cl)cc21 | inactive: 5.68% | – |
| COc1cc(NC(=O)CCNC(=O)Cn2ccc3ccccc3c2=O)cc(OC)c1OC | inactive: -10.9% | – |
| C[C@H]1C2=C3C(CC[C@H]4C(OCc5ccc(F)cc5C(F)(F)F)OC[C@](C)([C@@H]34)N(C(=O)OC(C)(C)C)C2)C(CO)C1CO (some centres not stated) | – | inconclusive: 31.6 µM [activator, single point] |
| CC(C)(C)c1ccc(C(=O)N2CCC(C(=O)NCc3ccco3)CC2)cc1 | – | inconclusive: 39.8 µM [activator, single point] |
| CCOc1ccc(C(=O)N2CCc3cc(OC)c(OC)cc3C2COc2ccc3c(C)cc(=O)oc3c2)cc1OCC (configuration not stated) | inactive: 22.4% | – |
| Cc1nn(Cc2ccc(Cl)c(Cl)c2)c(C)c1NC(=O)c1cc(-c2ccc3c(c2)OCO3)on1 | – | inconclusive: 39.8 µM [inhibitor, single point] |
